Experimental data taken from the supplement of paper PMC3334620.
The full ranking holds about 33,000 sequences; the median of “E-score (-0.5 to 0.5)” is about -0.011, and the highest 2% start at about 0.28. The list shows a part of the results.

Target: T1, Gcr1 (UniProt P07261)
T1 sequence: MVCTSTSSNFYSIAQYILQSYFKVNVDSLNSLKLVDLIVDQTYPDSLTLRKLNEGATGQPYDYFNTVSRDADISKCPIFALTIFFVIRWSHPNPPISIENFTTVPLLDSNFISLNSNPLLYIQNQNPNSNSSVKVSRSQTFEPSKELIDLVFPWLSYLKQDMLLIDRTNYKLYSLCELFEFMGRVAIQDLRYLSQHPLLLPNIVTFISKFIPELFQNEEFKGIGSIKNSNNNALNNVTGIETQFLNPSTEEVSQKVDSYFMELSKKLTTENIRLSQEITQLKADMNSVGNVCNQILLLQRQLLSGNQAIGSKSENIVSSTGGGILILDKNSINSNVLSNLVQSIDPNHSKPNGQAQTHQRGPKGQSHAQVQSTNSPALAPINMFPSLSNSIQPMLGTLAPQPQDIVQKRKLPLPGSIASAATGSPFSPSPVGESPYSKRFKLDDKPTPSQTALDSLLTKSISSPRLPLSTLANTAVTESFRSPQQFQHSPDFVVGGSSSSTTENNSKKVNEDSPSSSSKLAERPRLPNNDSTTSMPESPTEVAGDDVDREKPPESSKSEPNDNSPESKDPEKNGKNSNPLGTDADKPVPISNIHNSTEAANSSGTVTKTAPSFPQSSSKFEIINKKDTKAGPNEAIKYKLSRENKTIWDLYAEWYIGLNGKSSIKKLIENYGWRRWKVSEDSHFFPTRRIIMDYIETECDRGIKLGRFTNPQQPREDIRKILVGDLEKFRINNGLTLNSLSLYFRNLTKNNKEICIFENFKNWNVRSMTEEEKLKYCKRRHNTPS
Experiment: PBM E-score (8-mer binding enrichment) (E-score (-0.5 to 0.5)); higher = stronger / more preferred TF binding; most listed sequences are background and not binding sites
Settings: protein concentration: 100 nM; construct: GST-full length
Procedure, shortened: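 Bound GST-tagged yeast transcription factors, applied at about 100-200 nM to double-stranded universal all-10-mer Agilent arrays, were detected with fluorescent anti-GST. Scans were normalised with masliner. A modified Wilcoxon-Mann-Whitney statistic, the E-score, was assigned to each ungapped eight-base word pooled with its reverse complement by the Universal PBM Analysis Suite.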

| Sequence | PBM E-score |
| --- | --- |
| TGATACCA | 0.107 |
| AGACAAGC | -0.117 |
| CTTCGGAC | 0.0401 |
| CGACCCAG | -0.169 |
| CTTCTCAC | 0.00216 |
| ACAACGAT | -0.134 |
| CCCTCGGA | -0.221 |
| CAGGCCGA | -0.0271 |
| TCCGTAAA | 0.149 |
| GTAGAGCA | -0.00374 |
| ACACGACA | 0.0787 |
| AGCCGGCG | -0.046 |
| AGCGCTCG | -0.0704 |
| ACTCTGGG | 0.16 |
| CCTCGCAC | -0.083 |
| TCTGACCA | -0.0141 |
| CTTAACCC | -0.254 |
| ACTTGCAG | -0.101 |
| CGCCAGTC | -0.0131 |
| ATAAGCTA | -0.078 |
| CGTAATTC | 0.182 |
| AACTTATG | 0.0783 |
| ATTGCGTC | 0.0181 |
| CACCCAAC | -0.0172 |
| ACGACGAA | -0.12 |

| Sequence | PBM E-score |
| --- | --- |
| ACTCTACT | 0.085 |
| CCCCCAGA | 0.069 |
| AGAGAAGA | 0.0866 |
| TTGAAAAA | 0.0707 |
| AAAGTCTT | -0.247 |
| GAAATATC | -0.0882 |
| AGTATGTC | 0.0226 |
| GCCCAAAC | 0.111 |
| AAGCTTGA | -0.0122 |
| AAGTCAGA | -0.054 |
| CACGGTCA | -0.172 |
| ACCTACTC | -0.163 |
| AGCCGGCC | -0.115 |
| AAAGAGAA | 0.022 |
| CCCTTTCC | -0.201 |
| ACCAACAA | 0.027 |
| CCTCAAGA | 0.0666 |
| AGGTAACT | -0.0112 |
| CCGTGATC | -0.0521 |
| ACCTTGCA | -0.218 |
| ACCAGCGG | 0.0166 |
| ACTTTCCC | 0.00875 |
| CTTGTTTA | 0.139 |
| CAATCTTA | -0.0186 |
| AACGCGGT | -0.107 |

| Sequence | PBM E-score |
| --- | --- |
| GTATGCCA | -0.0655 |
| ATGGCCAG | -0.12 |
| AGCGAAAA | -0.148 |
| TCAACGAA | 0.0235 |
| GTCCACAA | 0.224 |
| GCACACAC | -0.0257 |
| ACCTAATG | 0.092 |
| CCGCCTAC | 0.0338 |
| CCAAGAAC | 0.00226 |
| AGTTCAAT | 0.0306 |
| AAGTAATA | 0.113 |
| AGAGGATC | 0.024 |
| TCCTGAGA | -0.0349 |
| TAATCGTA | -0.0645 |
| CCCAAAAA | 0.212 |
| GGTCGAGA | -0.0372 |
| ATGTCGAG | 0.0795 |
| ACCACAAG | 0.0711 |
| CGGTCCGC | -0.233 |
| ACGATCCG | -0.0917 |
| ATTGCGTG | 0.0862 |
| ACTACAAA | -0.0263 |
| TTAGCTAA | -0.0653 |
| ATCGGATG | 0.105 |
| GCGTACAC | -0.103 |

| Sequence | PBM E-score |
| --- | --- |
| AACTGACT | -0.194 |
| CACCTACA | 0.12 |
| ATTAGATC | -0.0406 |
| GCAAGCTA | -0.183 |
| ATCTTTAC | 0.062 |
| CAATACTG | 0.00946 |
| GATTCTGA | 0.0548 |
| CTTGCAGC | -0.0484 |
| AACGTAAG | -0.143 |
| ATTGCTCC | -0.155 |
| CAGTCCGG | -0.0133 |
| CACAACAC | -0.0602 |
| AGAATCCC | 0.321 |
| CTCGGGGC | -0.101 |
| CCCTTTTC | -0.107 |
| CACAGTAC | 0.00655 |
| CTCCATTC | -0.0832 |
| AAATCATT | -0.0184 |
| CTACGGTC | -0.119 |
| ACGGGCAT | -0.0355 |
| GAACGCTA | -0.111 |
| GCAGGGAC | -0.299 |
| GCTAGAGC | -0.135 |
| GGGCAAAA | -0.0849 |
| CATAGGCG | 0.0505 |

| Sequence | PBM E-score |
| --- | --- |
| TACACCTA | -0.0458 |
| CCTTCCAA | -0.0431 |
| GTATAGCA | 0.0487 |
| GCATATAC | -0.0524 |
| GTTCAGTA | -0.172 |
| ACGCGGTA | -0.0567 |
| ATGCCATC | -0.134 |
| AACCCGGA | 0.0755 |
| ACCTAGCC | -0.234 |
| AGGCTGTG | -0.182 |
| CCGGTGCC | -0.187 |
| CATTCGCC | 0.0285 |
| AAAGATTT | 0.0719 |
| CCTGACCG | -0.182 |
| CTCGGATC | 0.0215 |
| CAACTCTG | 0.075 |
| AACAGACC | -0.179 |
| CGTTATCC | -0.107 |
| CTTCGCGA | 0.115 |
| CGGTCAGA | -0.24 |
| CGCGTAAC | -0.11 |
| ATTAAAGC | -0.0613 |
| TCACTCCA | 0.0145 |
| CAGCGCTC | -0.125 |
| ATCGCCGA | -0.0388 |

| Sequence | PBM E-score |
| --- | --- |
| AGTCCCCA | -0.047 |
| TCGGATAA | 0.0743 |
| AAAAGGGT | -0.019 |
| TCTTATAA | 0.142 |
| AGGCCATC | -0.218 |
| ATCAGCCA | 0.00298 |
| TACGGGGA | 0.115 |
| CGTTATAA | 0.0645 |
| AGCAGTTC | -0.0649 |
| AAATGGAC | 0.01 |
| TCAGGTAA | -0.152 |
| GTACGGAA | 0.0818 |
| CTAATGTC | 0.169 |
| ATATCCGC | 0.0368 |
| AGTTGTTC | 0.00713 |
| CAAAAAGG | 0.217 |
| AGACTGTG | -0.222 |
| CTCCTACC | -0.054 |
| TACCCGTA | -0.012 |
| CAGCCTGG | 0.0106 |
| ATATCGGA | 0.0735 |
| CATTCGTC | -0.0621 |
| GGTTGGCA | -0.109 |
| CTAAGTCA | -0.028 |
| CCCAACTA | 0.144 |

| Sequence | PBM E-score |
| --- | --- |
| CCCGAGAG | -0.0648 |
| CTACGTGA | -0.0739 |
| GCGGGCAA | -0.146 |
| ATAGCTGC | 0.285 |
| AATTCGCC | 0.00647 |
| TAACCATA | 0.0179 |
| AATCTAAC | 0.0133 |
| GCGTTTGA | -0.204 |
| AATATTGT | 0.144 |
| AGCATATC | 0.0198 |
| ATGATCCA | -0.0753 |
| ACTACGTA | 0.00907 |
| ACACCATA | 0.131 |
| CCCATCTA | -0.0577 |
| AATCTTAG | 0.0881 |
| AGTGTTAT | -0.0233 |
| GATCCCAC | 0.235 |
| ATTTGCGC | 0.0154 |
| GTAGATGA | -0.0244 |
| TGGATCCA | 0.317 |
| GGCGAAAC | -0.183 |
| AGCGCTAC | -0.0646 |
